# Assay results published in article PMC5892938.
# The list shows a part of the results. Construct or isoform of the protein are uncertain.
# Biological target: GST-SBP-ILF3 (Homo sapiens) (UniProt Q12906)
# Assay: targeted RNA Bind-n-Seq
# Settings: RBNS binding buffer: 25 mM Tris pH 7.5, 150 mM KCl, 3 mM MgCl2, 0.1% Tween, 0.5 mg/mL BSA, 1 mM DTT; 27 nM protein, 750 pM RNA pool; temperature not stated; high values mean tight binding; sequences stand for … in GGGUAAAAGCGAGGUGAA…CGGGACAAGUAUUAUGGG
row,Sequence,binding signal (log2 fold change)
1,GUUGGUGGUGUUGGCCCCUAACACCAUCAA [gtspaired],-0.0295
2,UUUUUUUUUUGAGACGGUGACCGUUUCCAG [tttttgagapaired],0.801
3,UUUUUUUUUUGAGAUCGGAUCGAUCUCCUG [tttttgagapaired],-0.0133
4,GUGUGUGGUGUUGGACCCUAACACCGCGCG [gtspaired],-0.572
5,UUUUUUUUUUGAGACUGUGGCAGUUUCCAG [tttttgagapaired],0.826
6,GUGUGUUGUGUUGGACUCUAACACAGCACG [gtspaired],-0.481
7,UUUUUUUUUUGAGACGGGAUCCGUUUCCUA [tttttgagapaired],0.39
8,UUUUUUUUUUGAGAUGGUCUCUAUCUCCAG [tttttgagapaired],0.333
9,GUGUUGUGUGUUGGACCCUAACACACAACG [gtspaired],-0.343
10,UUUUUUUUUUGAGACGGUGGCCGUCUUCUA [tttttgagapaired],0.818
11,UUUUUUUUUUGAGAGCGGUACGUUCUCCGG [tttttgagapaired],0.224
12,GUGGUUGGUGUUGGUCCCUAACACCAGCCG [gtspaired],-0.505
13,UUUUUUUUUUGAGACGGCGUCCGUCUCCUG [tttttgagapaired],0.94
14,UUUUUUUUUUGAGAGGGUAACCCUCUCCAG [tttttgagapaired],0.297
15,UUUUUUUUUUGAGAUGGGGCCCAUCUCCGG [tttttgagapaired],0.632
16,UUUUUUUUUUGAGACGGGCGCCGUCUCCUA [tttttgagapaired],0.563
17,GUGUGGUGUGUUGGAACCUAACACAUCACG [gtspaired],-0.693
18,GUGUGUGGUGUUGGUGCCUAACACCGCGCG [gtspaired],-0.552
19,UUCUCUUCUCCUCCGCCGGAGGGGAAGGGA [ctspaired],-0.372
20,UUUUUUUUUUGAGAGCGAGUCGCUCUCCGG [tttttgagapaired],0.164
21,UUUUUUUUUUGAGAUCGAAUCGAUCUUCUA [tttttgagapaired],-0.268
22,UUUUUUUUUUGAGAGGGCUCCCCUCUCCUG [tttttgagapaired],0.701

row,Sequence,binding signal (log2 fold change)
1,GGUGGUGGUGUUGGUCUCUAACACCGCCGC [gtspaired],0.0122
2,GGUUGGUGUGUUGGAUCCUAACACAUCGAC [gtspaired],-0.779
3,UUUUUUUUUUGAGACCGACACGGUUUCCUA [tttttgagapaired],0.485
4,UUUUUUUUUUGAGAGCGUAACGUUCUCCGG [tttttgagapaired],0.163
5,UUUUUUUUUUGAGAACGACACGUUCUCCUA [tttttgagapaired],-0.0447
6,GUGUUGUGUGUUGGCAUCUAACACACAGCA [gtspaired],-0.566
7,UUUUUUUUUUGAGACUGGGCCAGUCUCCUA [tttttgagapaired],0.494
8,GGUUGGUGUGUUGGACUCUAACACAUCGAC [gtspaired],-0.665
9,GGUUGGUGUGUUGGAAUCUAACACAUCAGC [gtspaired],-0.733
10,UUUUUUUUUUGAGACUGGUGCAGUCUCCUA [tttttgagapaired],0.263
11,UUUUUUUUUUGAGAACGAGCCGUUCUCCGG [tttttgagapaired],0.0614
12,GUGUGUUGUGUUGGACUCUAACACAGCGCA [gtspaired],-0.648
13,GUUGGUGGUGUUGGCACCUAACACCACCGA [gtspaired],-0.175
14,UUUUUUUUUUGAGACGGUAACCGUCUCCUA [tttttgagapaired],-0.0965
15,UUUUUUUUUUGAGACCGAGGCGGUCUUCUG [tttttgagapaired],0.669
16,UUCUCCUCUCCUCCGCUGGAGGGGGGGAGA [ctspaired],-0.00434
17,GUGUGGUGUGUUGGCUUCUAACACAUCGCA [gtspaired],-0.749
18,GGUUGUGGUGUUGGCUCCUAACACCGCGAC [gtspaired],-0.83
19,UUUUUUUUUUGAGAGUGAAACACUCUUCUG [tttttgagapaired],-0.0344
20,UUUUUUUUUUGAGACGGCUACCGUUUCCUG [tttttgagapaired],0.581
21,GUGUGUGGUGUUGGCAUCUAACACCAUAUA [gtspaired],-0.498
22,GGUUGGUGUGUUGGUCCCUAACACACCGAC [gtspaired],-0.109

row,Sequence,binding signal (log2 fold change)
1,GGUUGGUGUGUUGGUGCCUAACACAUCAAC [gtspaired],-0.565
2,GUGGUGUGUGUUGGUAUCUAACACACAUCG [gtspaired],-0.614
3,GGUGUGUGUGUUGGCAUCUAACACAUACGC [gtspaired],-0.524
4,GGUUGUGGUGUUGGUCCCUAACACCGCGAC [gtspaired],-0.633
5,UUUUUUUUUUGAGAGGGCAUCCCUCUCCAG [tttttgagapaired],0.647
6,GGUUGGUGUGUUGGAGCCUAACACAUCGAC [gtspaired],-0.448
7,UUUUUUUUUUGAGAGUGUUGCAUUCUCCAG [tttttgagapaired],0.299
8,GUUGUGUGUGUUGGAGUCUAACACACGCGA [gtspaired],-0.763
9,UUUUUUUUUUGAGAGGGCACCCCUCUCCGG [tttttgagapaired],0.45
10,UUUUUUUUUUGAGAACGUUUCGUUCUCCAG [tttttgagapaired],0.21
11,GGUUGGUGUGUUGGCGCCUAACACAUCAAC [gtspaired],-0.331
12,GUUGUGUGUGUUGGAAUCUAACACACGCGA [gtspaired],-0.714
13,UUUUUUUUUUGAGAGGGCUCCCCUCUCCAG [tttttgagapaired],0.602
14,GUGUGGUGUGUUGGUGCCUAACACACCGCA [gtspaired],-0.394
15,GUGUGGUGUGUUGGUGCCUAACACACUACG [gtspaired],-0.29
16,UUUUUUUUUUGAGACUGGAACAGUCUUCUG [tttttgagapaired],0.246
17,UUUUUUUUUUGAGACCGAACCGGUUUCCUG [tttttgagapaired],0.599
18,GUGUUGUGUGUUGGUCUCUAACACACAACG [gtspaired],-0.923
19,UUUUUUUUUUGAGACCGGGCCGGUCUCCUA [tttttgagapaired],0.46
20,GUGGUUGGUGUUGGCCCCUAACACCGACUA [gtspaired],-0.385
21,UUUUUUUUUUGAGACUGGGUCAGUUUCCGG [tttttgagapaired],0.749
22,UUUUUUUUUUGAGAUGGAUUCCGUCUCCUG [tttttgagapaired],0.116
